# Laboratory results reported in the supplement of paper PMC11417369.
# ± gives the standard deviation of the averaged measurements. The list shows a part of the results.
# Test system: PfAP2-EXP AP2 domain (GST-tagged)
# Experiment: gcPBM binding intensity (ln(normalized median fluorescence intensity)); higher = stronger DNA binding
# How it was run: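 In this array assay, P. falciparum DNA-binding domains with a GST tag, expressed in E. coli, were applied for 1 h to primer-extended double-stranded 36-bp intergenic genomic probes and negative controls on an Agilent 4 × 180k array. Bound protein was visualised with Alexa488 anti-GST antibody at 488 nm. Binding intensity is the highest Masliner-normalised natural-log median intensity across replicate spots of either probe orientation.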
row,Sequence,gcPBM binding intensity (ln)
1,AAAAAATTTCAAATAACACACACTAATATATATATG [CACACA_site1426],8.61 ± 0.35
2,TAAATATATAATTGTAGTACTGTTTTATGTTCATAA [XGTACX_site1020],8.38 ± 0.39
3,AATATTCACATTTGTTGTACATTCCTAGTTATATAA [XGTACX_site491],8.89 ± 0.4
4,AAGGAAAATTTTTGGTGTACACAAAAAAATCCAAAA [XGTACX_site3596],8.88 ± 0.31
5,TAAACAGATATATTTTGTACATATTGTATATTTTGT [XGTACX_site713],8.21 ± 0.45
6,ACAAAAAAGTAAAAAGTGCATGTAAAATATAAGTAT [GTGCAC_site9438],9.37 ± 0.32
7,AATAAATCTTTTTGTTGTACTAAAAATATTATTAGC [XGTACX_site3335],8.21 ± 0.42
8,TTAATATATTATATTTGTACATATATATATATACAA [XGTACX_site4798],8.38 ± 0.36
9,AAATTGTGTTCATCAGCACACACAACATCATGTAAT [CACACA_site8556],8.51 ± 0.41
10,CGAAAGAAAAAAAGCACACACAGTTTTGAGCAATGA [CACACA_site2109],8.54 ± 0.59
11,CTTATTTCCTTTTGTAGTACCTTATAATATATATAA [XGTACX_site8873],9.04 ± 0.38
12,TTATATATTTTTTGCACACCAAAAAAGAGAATATTC [CACACA_site2730],8.8 ± 0.27
13,GGGAAGTAGTAGTAATGTACTTATTTATTATGTGAC [XGTACX_site3985],8.71 ± 0.35
14,GCATTTCTACTAAAAATACACACGATGATACAACGA [CACACA_site1756],8.61 ± 0.38
15,TAATAATAGTACTCACATCAAAGTATTATTAAAAAT [TGCATGCA_negctrl_site496],8.29 ± 0.28
16,TTCTATTTGTAAAATTGTACAAAATAAATAACAAAA [XGTACX_site1007],8.72 ± 0.34
17,TATAAATATAAATACACACACATATATATTATATAT [CACACA_site4496],8.39 ± 0.38
18,ATATATATATATATGTGTACATAATAACTTTGCTTA [XGTACX_site1255],10.1 ± 0.24
19,ACCTATTTCAAACACACACACACACTAGCAAACATA [CACACA_site4695],8.78 ± 0.52

row,Sequence,gcPBM binding intensity (ln)
1,TATATATATATATGTTGTACATATTTAAATGTTTAT [XGTACX_site5437],10.2 ± 0.2
2,TAAAAAATGTTATATACACACAGTATAAAAAAAAAT [CACACA_site7808],8.61 ± 0.57
3,CCACGTATAATATGTACACACACATAAATACAAAAA [CACACA_site4660],8.76 ± 0.49
4,AATTAAATTATAAGCACACACATATATATATATATA [CACACA_site3351],10.2 ± 0.32
5,ATATATTATTATAACTGTACTTTTTTTGTGGTTAAT [XGTACX_site8266],8.63 ± 0.33
6,TATGCGTATATATAAATACACACCAAATGTTAATAT [CACACA_site1713],8.49 ± 0.3
7,CCATTTACATTGTGAAGTACTAAAAAAAAATGTAGA [XGTACX_site7882],8.7 ± 0.34
8,ACAAGGAATATAAAAAGTACATAAAATACATAAAAA [XGTACX_site1217],8.81 ± 0.33
9,ATATAAATATAAATATATATGTATAAATATAAATAT [CACACA_negctrl_site247],8.25 ± 0.47
10,TATGGATGTATTCATACATGCACACGTACATATTTA [TGCATGCA_site991],8.71 ± 0.2
11,ATAATTTGATGGTTAACACACATATATATTATATAT [CACACA_site2449],8.63 ± 0.41
12,TATATATATATATATACACACAAAAAAATAAATTCT [CACACA_site98],10.1 ± 0.57
13,TACTTTTCATCTTCTTAACACACAAAAAAAAAAAAA [CACACA_site9290],8.46 ± 0.38
14,ATTTATTTTAATAATTGTACATGTTATTTTATATAT [XGTACX_site2667],8.41 ± 0.46
15,ATCATTTTTAAAGGAACACACAAAAAAAGTTATAAT [CACACA_site6761],8.82 ± 0.55
16,ATACATCAAGGACACACACACACACGCACACGCACA [CACACA_site6310],8.68 ± 0.45
17,AAACTATTCACTATAATACATTAGAAGTGAATAAAA [TGCATGCA_negctrl_site498],8.38 ± 0.45
18,TTATGATGGTCTTTATAAGGGCACATTAAATTCGGC [TGCATGCA_negctrl_site166],8.72 ± 0.35
19,AATAGCAATTTGGGGTGTACACACACCTTATTTAAA [XGTACX_site2234],8.64 ± 0.4

row,Sequence,gcPBM binding intensity (ln)
1,TGAAAAGGAAATTGTTGTACATATGTTTCTTCCTAA [XGTACX_site3932],8.44 ± 0.55
2,ATATATTTAACAAGATGTACAATTTTATAAAAAATA [XGTACX_site2351],8.45 ± 0.26
3,AGAAATTAATCGAGGTGTACGTACATCCAAATATAT [XGTACX_site7650],8.87 ± 0.42
4,TATATATAAATATTCAGTACATAGTGCTATTAAGTG [XGTACX_site1979],8.605 ± 0.064
5,CCATTATATCTAAGTACACACATTAATTTTTTTTTT [CACACA_site6115],8.54 ± 0.32
6,TTTTTATAAAAAAATAGTACTCGTCTAATCTTATGT [XGTACX_site8532],8.48 ± 0.26
7,GAAATTTTATTTCGGCGGACAAATGTATACTTTCTT [XGTACX_site4238],8.54 ± 0.33
8,CTGTATAAAACCAATGCATGTAAATATATTAATATA [TGCATGCA_site511],9.1 ± 0.42
9,AAAATATATATAAATGCATGCATAATGAAATATATA [TGCATGCA_site39],9.95 ± 0.21
10,TTTTAAAAAACAAACACACACGTAGAAAAAAAAAAA [CACACA_site4608],8.85 ± 0.44
11,GAGAAGACATTACACAGTACCCAGTAACTCTACGGA [XGTACX_site2000],8.32 ± 0.39
12,AAATTGGGGCTTGTTACACACTTAGTGCGAGTTCTA [CACACA_site582],8.61 ± 0.35
13,GATTATTATGTCCATGCATGTTAATATATATTAATT [TGCATGCA_site837],9.14 ± 0.38
14,AAAAAAAAAAAAAAAAAAAAAAAAAAAAAAACATAT [GTGCAC_negctrl_site580],9.21 ± 0.19
15,ATGAATAATTAATGATGTACTTAAAAAAAAAAATAT [XGTACX_site6346],8.48 ± 0.42
16,GTTAATATCTTGAACAGTACTCTAAATATCTACATA [XGTACX_site5358],8.39 ± 0.48
17,ATATATTATATTGAATGTACATATATATATTATATA [XGTACX_site8445],8.35 ± 0.33
18,TTACAATAAATTATAGTGCAATATTTTATTTAATAT,8.565 ± 0.021
19,TAGCCCATATGGAATACACACTGAAAATAAAAAAAG [CACACA_site5799],8.74 ± 0.7
